According to PubChem BioAssay AID2147 (National Center for Advancing Translational Sciences (NCATS), 2009):
Among all 230,000 compounds or so, about 3,600 (1.6%) were called active. The shares of active, inactive and inconclusive entries below differ from those in the screen. Calls follow the shape of the dose curve; as a rule, active = well fitted inhibition curve with a large enough effect (not every such curve was filed as active); inconclusive = small, poorly fitted or top-dose-only effect, or another doubt; inactive = no such curve, though single readings can be large or run the other way. Potencies of inconclusive entries are doubtful fits and often do not repeat.

These compounds were tested against Lysine-specific demethylase 4E (Homo sapiens) (UniProt B2RXH2) (assay: qHTS Assay for Inhibitors of Human Jumonji Domain Containing 2E (JMJD2E)). Conditions: JMJD2E catalytic domain, FDH-coupled NADH fluorescence (FDH is formaldehyde dehydrogenase); series mostly up to 57.1 µM; activity change, negative = inhibition: at the top concentration.
Also: nearly all actives have a fitted effect of over 50% in size.
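For activity change, negative = inhibition in this document: 0% = wells with enzyme and -100% = buffer wells without enzyme.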
Potency is read from the fitted curve at half-maximal effect; tags tell the direction and shape of the fitted curve.

Chain of UniProt B2RXH2 (B2RXH2 whole entry, looked up, the tested form may be a part): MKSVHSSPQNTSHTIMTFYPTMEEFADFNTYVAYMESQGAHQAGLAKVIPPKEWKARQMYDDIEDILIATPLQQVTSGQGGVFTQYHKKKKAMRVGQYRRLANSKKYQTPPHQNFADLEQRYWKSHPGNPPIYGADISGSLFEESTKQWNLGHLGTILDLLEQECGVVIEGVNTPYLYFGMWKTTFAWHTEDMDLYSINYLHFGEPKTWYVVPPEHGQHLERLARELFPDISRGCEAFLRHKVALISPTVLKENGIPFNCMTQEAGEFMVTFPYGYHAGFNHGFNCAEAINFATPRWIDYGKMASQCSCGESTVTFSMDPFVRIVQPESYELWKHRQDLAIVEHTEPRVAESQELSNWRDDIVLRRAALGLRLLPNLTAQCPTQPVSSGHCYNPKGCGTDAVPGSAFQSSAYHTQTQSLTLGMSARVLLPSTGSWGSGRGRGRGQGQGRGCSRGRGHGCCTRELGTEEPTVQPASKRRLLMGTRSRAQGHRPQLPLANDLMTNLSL

SMILES	Potency	activity change, negative = inhibition
COc1cc(C(=O)Nc2nnc(-c3sccc3C)s2)cc(OC)c1OC	inconclusive: 22.4 µM [inhibitor, partial curve]	
CCOC(=O)CN=C1CC(C)(C)CC2=C1Sc1ncnc(N(C)C)c1N2	inconclusive: 35.5 µM [inhibitor, single point]	
COc1ccc2c(c1)C1=NN(/C(C)=C/C(C)=O)C(c3cccc(F)c3)C1CC2 (stereo not given)	inconclusive: 35.5 µM [inhibitor, single point]	
O=C(O)c1cccc(N2C(=O)C3CC=CCC3C2=O)c1 (stereo not given)		inactive: 3.89%
Cc1ccc(N2CC(C(=O)Nc3ccc(S(=O)(=O)Nc4nccc(C)n4)cc3)CC2=O)cc1 (stereo not given)		inactive: -0.381%
CC(Oc1ccc(-n2cnnn2)cc1)C(=O)O (stereo not given)		inactive: -3.58%
CCC(c1nnnn1Cc1cccs1)N1CCN(C(=O)c2ccco2)CC1 (stereo not given)		inactive: 0.112%
O=C1NC(=O)/C(=C/c2ccccc2Oc2ccc(Cl)cc2)S1		inactive: -11.7%
O=C1NC(=O)c2cc(NC(=O)C3CCCO3)ccc21 (stereo not given)	inconclusive: 22.4 µM [inhibitor, partial curve]	
CCn1cc(C(=O)N(CCC(C)C)c2c(N)n(Cc3ccccc3)c(=O)[nH]c2=O)c(=O)c2ccc(C)nc21		inactive: 5.24%
Cc1[nH]c2ccccc2c1C(C#N)(C#N)C1C(=O)c2ccccc2C1=O	inconclusive: 28.2 µM [inhibitor, partial curve]	
Cc1ccc(C(=O)NNC(=O)c2cc3cc4ccccc4nc3s2)cc1	inconclusive: 39.8 µM [inhibitor, single point]	
Cc1c(Cc2ccccc2)c(=O)oc2cc(O)cc(O)c12	inconclusive: 25.1 µM [inhibitor, partial curve]	
CCOc1ccccc1N=CC1=C(O)CC(c2ccccc2)CC1=O (stereo not given)	inconclusive: 35.5 µM [inhibitor, single point]	
Cc1nc2ccccn2c1C(=O)NNS(=O)(=O)c1ccc(C(C)(C)C)cc1		inactive: 0.255%
COC(=O)c1ccccc1NC(=O)c1cc([N+](=O)[O-])nn1Cc1ccccc1		inactive: -8.42%
CCOC(=O)c1cc(-c2ccc(N3CCOCC3)cc2)nn1-c1ccccc1C(=O)O	inconclusive: 20 µM [inhibitor, single point]	
Cc1cccc(C(=O)Nc2ccccc2C(=O)OCc2c(C)noc2C)c1	inconclusive: 35.5 µM [inhibitor, single point]	
COc1ccc2cc1Oc1ccc(cc1)CC1c3c(cc(OC)c4c3Oc3cc5c(cc3O4)CCNC5C2)CCN1C (stereo not given)	inconclusive: 28.2 µM [inhibitor, single point]	
CCOc1cc(S(=O)(=O)N2CC=C(c3ccc(F)cc3)CC2)c(OCC)cc1-n1cnnn1	inconclusive: 22.4 µM [inhibitor, partial curve]	
COC(=O)C(C(=O)OC)=C(/C=C/C=C/N(C)C)N(C)C	inconclusive: 35.5 µM [inhibitor, single point]	
COc1ccc(S(=O)(=O)N2CCOCC2)cc1NC(=O)CSc1cccc[n+]1[O-]		inactive: 5.03%
O=C(/C=C/c1ccc(Cl)c([N+](=O)[O-])c1)c1cccnc1		inactive: 4.53%
Nc1nc(CN2CCN(c3cccc(Cl)c3)CC2)nc(N2CCCc3ccccc32)n1	inconclusive: 39.8 µM [inhibitor, single point]	

SMILES	Potency	activity change, negative = inhibition
O=C(Cc1ccc(F)cc1)NCCc1ccccc1		inactive: 6.8%
CCN(CC)CCN1C(=O)c2ccccc2NC1c1cc(OC)c(OC)c(OC)c1 (stereo not given)	inconclusive: 31.6 µM [inhibitor, partial curve]	
O=c1[nH]c2ccc(Cl)cc2c(-c2ccccc2)c1N1CCN(CCO)CC1	inconclusive: 25.1 µM [inhibitor, partial curve]	
c1ccc(CCc2nc(-c3ccc(-n4cccc4)cc3)no2)cc1	inconclusive: 39.8 µM [inhibitor, single point]	
Cc1ccc(/C=N/NC(=O)CN2CCN(S(=O)(=O)c3ccc(Br)cc3)CC2)s1		inactive: -7.23%
O=C(CCc1nc2ccccc2[nH]c1=O)OCC(=O)c1cccc2ccccc12	inconclusive: 35.5 µM [inhibitor, single point]	
CCn1cc(C(=O)NCc2ccc3c(c2)OCO3)c(=O)c2cc(F)c(N3CCN(C(=O)c4ccco4)CC3)cc21	inconclusive: 20 µM [inhibitor, partial curve]	
COC(=O)c1ccc(NC(=O)CSc2nnc(-c3ccncc3)n2N)cc1		inactive: 4.09%
COC(=O)COc1cc(C)cc2oc(=O)c(CC(=O)OC)c(C)c12	inconclusive: 28.2 µM [inhibitor, partial curve]	
CC/C=C\C/C=C\C/C=C\C/C=C\C/C=C\C/C=C\CCC(=O)NCC(=O)O		inactive: -1.32%
COc1cc2cc(C(c3nnnn3Cc3ccc(F)cc3)N3CCCCCC3)c(=O)[nH]c2cc1OC (stereo not given)	inconclusive: 28.2 µM [inhibitor, partial curve]	
COCc1cc(=O)[nH]c(=S)[nH]1		inactive: 7.8%
CCc1nc2ccccc2n1Cc1ccccc1OC		inactive: -8.33%
COc1ccccc1/C=C\C(=O)NCC(=O)N/N=C(\C)Cc1ccccc1	inconclusive: 31.6 µM [inhibitor, partial curve]	
O=S(=O)(Nc1nccs1)c1ccc(NS(=O)(=O)c2cccs2)cc1		inactive: -2.84%
CN=C(c1ccc(C)cc1)n1c(=S)nc(-c2ccc(C)cc2)n(C)c1=S	inconclusive: 39.8 µM [inhibitor, single point]	
O=C(NC(=S)Nc1ccccc1N1CCCCC1)c1ccccc1		inactive: -4.54%
COc1cc(OC)c2c(c1)OC1Cc3cc(OC)c(OC)cc3C2O1 (stereo not given)		inactive: -4.87% [at 11.4 µM]
CN(C)CCNC(=O)c1cc2sc3ccccc3c2s1	inconclusive: 28.2 µM [inhibitor, partial curve]	
COc1cc(/C=C/C(=O)OCC(=O)Nc2ccc(S(=O)(=O)N3CCCC3)cc2)ccc1O	inconclusive: 28.2 µM [inhibitor, partial curve]	
CC(=O)Oc1ccc2ccc(=O)oc2c1	inconclusive: 12.6 µM [inhibitor, partial curve]	
c1ccc(Cn2nnc3c(N4CCN(Cc5ccc6c(c5)OCO6)CC4)ncnc32)cc1	inconclusive: 35.5 µM [inhibitor, single point]	
CCCc1noc(-c2ccc(-c3ccccc3)cc2)n1	inconclusive: 20 µM [inhibitor, partial curve]	
COc1ccc(C2C3=C(CCCC3=O)Nc3c(-c4ccccc4)c(C)nn32)cc1 (stereo not given)	inconclusive: 31.6 µM [inhibitor, partial curve]	

SMILES	Potency	activity change, negative = inhibition
CCOc1ccc(-n2nc3c(=O)n(CCN4CCCCC4)nc(C)c3c2C)cc1	inconclusive: 31.6 µM [inhibitor, partial curve]	
Cc1cccc(Cn2ccc(-c3ccc(Cl)cc3)c(C#N)c2=O)c1	inconclusive: 28.2 µM [inhibitor, single point]	
COc1ccc(C(C)=O)cc1COC(=O)c1cccc(N(C)C)c1	inconclusive: 39.8 µM [inhibitor, single point]	
O=C(Nc1cccc2ncccc12)C(c1ccccc1)c1ccccc1	inconclusive: 28.2 µM [inhibitor, single point]	
COc1cc2c(cc1OC)Cc1cc(OC)c(OC)cc1Cc1cc(OC)c(OC)cc1C2		inactive: 1.12%
O=C(Nc1ccccc1)N1N=C(c2ccc(F)cc2)CC1c1ccc(F)cc1 (stereo not given)	inconclusive: 35.5 µM [inhibitor, single point]	
CC1Cc2ccccc2N1S(=O)(=O)c1cccc(C(=O)N2CC(=O)Nc3ccccc32)c1 (stereo not given)	inconclusive: 39.8 µM [inhibitor, single point]	
COc1ccc(-c2cc3nc(C4CCN(C(=O)OC(C)(C)C)CC4)c(C(=O)O)cn3n2)cc1	inconclusive: 28.2 µM [inhibitor, partial curve]	
COc1ccc(-c2nc(CC(=O)O)cs2)cc1OC	inconclusive: 28.2 µM [inhibitor, partial curve]	
O=C(CSc1ccc(-c2cccs2)nn1)Nc1ccccc1F	inconclusive: 39.8 µM [inhibitor, single point]	
Cc1cc(N2CCOCC2)n2ncc(-c3ccc(Cl)cc3)c2n1	inconclusive: 6.31 µM [inhibitor, single point]	
Cc1ccc(S(=O)(=O)NC(C(=O)Oc2cc3oc(=O)cc(C)c3cc2Cl)C(C)C)cc1 (stereo not given)	inconclusive: 3.55 µM [inhibitor, full curve]	
Cc1ccsc1/C=C/c1ccc2cccc(O)c2n1	inconclusive: 39.8 µM [inhibitor, single point]	
COc1cc(NC(=O)CSc2nc3c(C)ccc(C)c3cc2C)c(C(=O)O)cc1OC		inactive: -1.35%
O=C(CSC1=NNC(c2ccccn2)S1)Nc1cccc(Cl)c1 (stereo not given)	inconclusive: 39.8 µM [inhibitor, single point]	
O=C(O)CCCNS(=O)(=O)c1ccc(NCc2ccccc2)c(C(=O)O)c1	inconclusive: 31.6 µM [inhibitor, partial curve]	
Cc1cc(=O)[nH]c(N/N=C/c2c(C)nn(-c3ccccc3)c2C)n1		inactive: -14.7%
Cc1ccccc1Cc1c(C)nc2c(C(=O)NCc3ccco3)cnn2c1C	inconclusive: 31.6 µM [inhibitor, partial curve]	
Cc1cnc(N)c2c(=O)oc3ccccc3c12	inconclusive: 25.1 µM [inhibitor, partial curve]	
COc1ccc(-n2ncc3c(NCc4ccco4)ncnc32)cc1	inconclusive: 28.2 µM [inhibitor, partial curve]	
CC(C)Cn1nnnc1S(=O)(=O)CCc1ccccc1		inactive: -0.812%
CC(Nc1cccnc1)=C(C#N)C#N		inactive: -13.2%
